According to the supplement of paper PMC11417369:
± gives the standard deviation of the averaged measurements. This is one part of the list.

tested on: PfAP2-LT AP2 domain (GST-tagged); assay: gcPBM binding intensity (ln(normalized median fluorescence intensity)); higher = stronger DNA binding
Procedure, shortened: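 GST-fused DNA-binding domains of P. falciparum, expressed in E. coli, were applied at about 25 μg on average for 1 h to an Agilent 4 × 180k array of primer-extended double-stranded 36-bp intergenic genomic probes and negative controls. Binding intensity is the highest Masliner-normalised natural-log median intensity across replicate spots of either probe orientation, measured with Alexa488 anti-GST antibody and a 488 nm scan.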

Sequence	gcPBM binding intensity (ln)
TTCTACATGAAGTTATAAATTAATATTTTAATTTAT [XGTACX_negctrl_site134]	8.21 ± 0.47
ATATATATATATATTTATTCATATATTTTTTGTCTT [TGCATGCA_negctrl_site58]	9.05 ± 0.52
TAAAGAAACGCATCGACGCACACTACAAAATAAAAA [CACACA_site1348]	9.07 ± 0.52
TTTTTATTTTTTCAGTGTACATTTAAATTATCTTAT [XGTACX_site3905]	8.69 ± 0.57
AAATAAATACATAATACATGCATATTTAATATATAG [TGCATGCA_site135]	8.79 ± 0.52
GTACAATCATATACTACATGCAGTTTTTTTTATTGA [TGCATGCA_site230]	8.93 ± 0.32
AATTTTTTTTAATGATGTACTTTTTGAAAATAAACT [XGTACX_site4221]	8.34 ± 0.47
TTTTCTTTTTCTTGTACACACATAATATGGATGAAA [CACACA_site808]	8.79 ± 0.51
TAGATATATAAATACACACACATACACAAAAAAAAA [CACACA_site7652]	9.61 ± 0.18
TTTTTTATTATTATTATTTTTTATGTATAATAATGT [CACACA_negctrl_site631]	8.55 ± 0.47
TATAAATATCTGAATTGTACAGGTGAAAAAAAAAAT [XGTACX_site1867]	8.74 ± 0.51
TATGAATACATTTGTTGTACTTAAATTTCCTTTATT [XGTACX_site5374]	8.73 ± 0.43
TTACTTTTTTTTTTATGTACTTATATTTTTTACACT [XGTACX_site3503]	8.89 ± 0.5
AAATAATTTATGCATACACACATATATATATATATA [CACACA_site4020]	9.63 ± 0.14
TTTCTATTCCATTCAACACACAAAAATGTATGCTTT [CACACA_site1072]	8.91 ± 0.47
AATGGATATTTCTTTATATATATCTTATTTGATTAT [XGTACX_negctrl_site284]	8.75 ± 0.41
ATTATATAGAATTGTACATGCGAATTGTATAACGAT [TGCATGCA_site125]	9.04 ± 0.29
TATAAACGTATAATATGTACACACACATATATACAA [XGTACX_site1686]	9.28 ± 0.31
AAAAAAAAAAAAAAAAATATATTTATGAAATAAAAA [TGCATGCA_negctrl_site262]	8.18 ± 0.57
TATTTTTTTTTTTTTTTTTTTTTTATATATACATAT [CACACA_negctrl_site23]	8.61 ± 0.52
CACAAAATAAATTAAACACACAACATCATATATGTA [CACACA_site846]	9.12 ± 0.4
GAAGAAGTTTAAAAAGCACACAAAAAAAAAAAAAAA [CACACA_site9088]	8.63 ± 0.46

Sequence	gcPBM binding intensity (ln)
TAAATTATTATCCCCTCACACACAAAAATAAAAAGA [CACACA_site2886]	9.35 ± 0.16
TATTTATAAACATACGCACACATTAATATATATATA [CACACA_site9314]	9.02 ± 0.35
AGATATTCTACTATGTGTACATATATATATATAATT [XGTACX_site5060]	9.02 ± 0.33
ATTATTATTAATCTTGTGCACATATATTTTAATTAG	8.91 ± 0.46
CTTGTAGATATAAAATGTACAAAAATAAATTGCACA [XGTACX_site4409]	8.68 ± 0.38
TTACTCATGAAAGATACACACATTCGTTATTTATAT [CACACA_site7517]	8.95 ± 0.38
TATACATGTATATATTGTACATATGTTTTTTTTACA [XGTACX_site3300]	8.87 ± 0.44
TTTTTTCAAATTTTCTTTTTTCTTTTGTTTTTTTTG [CACACA_negctrl_site380]	8.3 ± 0.78
TTTTTATAATGATACATATATTATTTTATTCTTAAT [CACACA_negctrl_site124]	8.44 ± 0.58
ACATTAAGACACATTGCACACGTGCACCCATAGAAA [CACACA_site8029]	9.16 ± 0.38
ACCTGGACAAAAATAAATAAATAAATAAATAAATGA [GTGCAC_negctrl_site238]	8.68 ± 0.6
TTTATATATTATTAATGTACAAAATTTTTATTGCAT [XGTACX_site3329]	8.52 ± 0.48
TAAATACAGAAACACACACACAAATATATACATACA [CACACA_site2880]	9.88 ± 0.13
AATTCTTTTTTCAACACACACACACTAGAAAATATA [CACACA_site5681]	9.46 ± 0.2
AAAAAAAAAAAAAACACACACAACACCCATACCTTA [CACACA_site3621]	9.79 ± 0.057
CTTTTAATATGTGTAGTGCATTTTTTTTTTTTTTTT [GTGCAC_site9727]	8.62 ± 0.51
GTCCTTCATCATATTTAACACACAGAGAAAAAGCGG [CACACA_site7979]	8.91 ± 0.3
TTTTTTTTTTTTTTGGTGCGTTTATATATAAATATA	8.62 ± 0.38
GGAATTATATGAAATAAACACACATATGTAATATTA [CACACA_site8586]	8.97 ± 0.38
TACATCGACCTATGTACATGCAAATTATTTTTATTT [TGCATGCA_site182]	8.91 ± 0.42
AAAATCTAATATAATGCACACATAAAAAAAAAATCA [CACACA_site8871]	8.96 ± 0.38
ATTTTTTTGTGTTTGGTACACACGTTATAAAAAATA [CACACA_site1345]	8.74 ± 0.41

Sequence	gcPBM binding intensity (ln)
TTGGTAATAATTTGAGGTACACTGTATAAATTTTTT [XGTACX_site909]	8.52 ± 0.46
TTTTTTTCTTAAAGATGTACTTTTTTAAAATAATCT [XGTACX_site3663]	8.2 ± 0.58
AATAATAAATTATGGTGTACGCATTTGTATATATAC [XGTACX_site5417]	9.01 ± 0.4
TAAAAGAAATATACATGTACATAAATATATATATAT [XGTACX_site1276]	9.09 ± 0.35
TATATTTGGAAATATTCTCAATTGGTACAAATAAAA [CACACA_negctrl_site1202]	8.38 ± 0.45
GCCCAACCAAAATATACACACAGTTGAATGAATAAA [CACACA_site2597]	9.06 ± 0.47
GATATGTGACGTTTGGTATTTTTGATGTTGGTAGGA [CACACA_negctrl_site1448]	8.87 ± 0.4
GGAAAATACATTCCAGTGCATTAATTTATTCAACGT	8.82 ± 0.41
AAAAAAATAAAATTATATAAAATAAATTTTTATAAT [GTGCAC_negctrl_site587]	8.29 ± 0.42
TTTTGGATCATTTGTTGTACATATGCAAAAAAAAAA [XGTACX_site3157]	8.33 ± 0.34
TATGATACATAATATACATGCATACACAACATTCAG [TGCATGCA_site487]	8.94 ± 0.37
TTTTTTAAAAAAGTTTTCTGTATTTATATATATATA [CACACA_negctrl_site31]	8.31 ± 0.39
TTAACCTTTTGATATTGTACCCATAATCTAATACAA [XGTACX_site769]	8.55 ± 0.46
TCATATGTATAAATTAGTACATATTTAATGGATATA [XGTACX_site3298]	8.59 ± 0.3
CTATCTACATAAACGTGTACCCACAAATAAATAAAT [XGTACX_site5210]	8.82 ± 0.37
AGGCACGTGTTATATACACACATAATCAAATAAACT [CACACA_site7852]	9.36 ± 0.38
TTATGTCATAAATGCACACATATATATATACATATA [CACACA_site1588]	8.95 ± 0.33
AAAATAATAACATTGTGTACATAAAAAGAAAACCTT [XGTACX_site840]	8.95 ± 0.46
ACATTTTATACGATAAAATGTATAAGATTATGAAGA [TGCATGCA_negctrl_site476]	8.72 ± 0.44
TATGAATGGTTAAGTACACACATATTAATATATGTA [CACACA_site3490]	8.93 ± 0.38
AAATGAAAATAAAGCAACAGAAATATAATGTATTAT [GTGCAC_negctrl_site508]	8.94 ± 0.52
TTTTTTTACAACATTACACACAAATATTCTGTGTTA [CACACA_site5957]	9.14 ± 0.42

Sequence	gcPBM binding intensity (ln)
ATATTACAACATTTTATACACACGTGATTATTAATT [CACACA_site2877]	9.04 ± 0.45
AACAAAAATAATAATCAAATAAATAAATGAAAACAT [CACACA_negctrl_site456]	8.95 ± 0.54
AATCGTGTTCTGAATACACACTAATACAAATTTGTA [CACACA_site6058]	8.91 ± 0.26
AGAAAATTAAAAAGAACACACAAATATATATATAAT [CACACA_site5896]	9.11 ± 0.5
AACATTTTAAAACAGACACACACCAAAAAAAAAAAA [CACACA_site257]	9.21 ± 0.38
CACCCATAAATATACACACGCACAACACAAAATAAA [CACACA_site2903]	9.63 ± 0.41
ATATATATATATACATGTACAAATGTATAACAAATG [XGTACX_site145]	9.16 ± 0.3
TGGTACCTTACTTTTACACACTTTTTTTTTTTTTTT [CACACA_site1557]	8.96 ± 0.46
TTTTGAGTAGCCTATTGTACGAACTTTTTAAATACA [XGTACX_site1224]	8.51 ± 0.52
AATATATACGCATGCGCACACACAAGTGGGAAATTT [CACACA_site1786]	9.64 ± 0.32
CCATTTTAAATATGCACACAGATGCACTAACACATT [CACACA_site5099]	9.25 ± 0.34
CATCCTATTACTTGGTGTACTATTTTATATTGAATA [XGTACX_site1050]	8.95 ± 0.48
ATAAATTTATCCAAGTGTACAAAGCTAACATTTTTT [XGTACX_site4399]	8.71 ± 0.37
GTTTATAAAATAAGAAGTACTTTATGAGAACCATAT [XGTACX_site5789]	8.63 ± 0.44
AAAAATGGAATTATCTGTACATATATAGTTTTTAAA [XGTACX_site5580]	8.44 ± 0.45
ATAAACAAGACGCAACAAAGTAGAAATTAAAAATAA [CACACA_negctrl_site345]	9.06 ± 0.54
TTAAAGATATACAAAAGTACTTTTTTTTTCGTCATT [XGTACX_site384]	8.55 ± 0.47
TTCATTAAATAGAACAAAATAATAATATAACAACAA [GTGCAC_negctrl_site116]	8.7 ± 0.51
CCATATCTTTTTTGCACACACTACAATAAAACAAAA [CACACA_site4995]	9.07 ± 0.25
GGTTCATATATTAACACACACATACATATTATATAT [CACACA_site2937]	9.46 ± 0.34
TGAGAGAGAAACGTAGTGCATAAAATCAAATTTAGA [GTGCAC_site9737]	8.94 ± 0.55
AATAATCATAGTTCTACACACCTATATTGCAAAAAA [CACACA_site867]	8.8 ± 0.35
